Source: EPA's CvTdb concentration-time database
The source gives many values for each of these; only a part stands here.

How the values were obtained:
Assay in all cases: concentration in plasma after dosing
[1] = system: Rat; conditions: dosed: Isoeugenol, 70 mg/kg, oral, Female, F344/N
[2] = system: Rat; conditions: dosed: Isoeugenol, 140 mg/kg, oral, Male, F344/N
[3] = system: Rat; conditions: dosed: Isoeugenol, 140 mg/kg, oral, Male, F344/N; remark: listed apart in the source
[4] = system: Rat; conditions: dosed: Isoeugenol, 17 mg/kg, iv, Female, F344/N
[5] = system: Rat; conditions: dosed: Isoeugenol, 70 mg/kg, oral, Female, F344/N; remark: listed apart in the source
[6] = system: Rat; conditions: dosed: Isoeugenol, 140 mg/kg, oral, Female, F344/N
[7] = system: Rat; conditions: dosed: Isoeugenol, 17 mg/kg, iv, Male, F344/N
[8] = system: Rat; conditions: dosed: Perfluorohexane-1-sulphonic acid – potassium salt, 4 mg/kg, Female, F344
[9] = system: Rat; conditions: dosed: Perfluorohexane-1-sulphonic acid – potassium salt, 16 mg/kg, oral, Female, Harlan Sprague Dawley
[10] = system: Rat; conditions: 24 h; dosed: Perfluorohexane-1-sulphonic acid – potassium salt; 16 mg/kg; oral; Female; F344
[11] = system: Rat; conditions: dosed: Perfluorohexane-1-sulphonic acid – potassium salt, 32 mg/kg, oral, Male, Harlan Sprague Dawley
[12] = system: Rat; conditions: dosed: Perfluorohexane-1-sulphonic acid – potassium salt, 4 mg/kg, oral, Female, Harlan Sprague Dawley
[13] = system: Rat; conditions: dosed: Perfluorohexane-1-sulphonic acid – potassium salt, 4 mg/kg, Female, F344; remark: listed apart in the source
[14] = system: Rat; conditions: dosed: Perfluorohexane-1-sulphonic acid – potassium salt, 4 mg/kg, oral, Male, F344
[15] = system: Rat; conditions: dosed: Perfluorohexane-1-sulphonic acid – potassium salt, 4 mg/kg, Female, F344; remark: listed apart in the source
[16] = system: Rat; conditions: dosed: Perfluorohexane-1-sulphonic acid – potassium salt, 4 mg/kg, Female, Harlan Sprague Dawley
[17] = system: Rat; conditions: dosed: Perfluorohexane-1-sulphonic acid – potassium salt, 4 mg/kg, Female, F344; remark: listed apart in the source
[18] = system: Rat; conditions: dosed: Perfluorohexane-1-sulphonic acid – potassium salt, 4 mg/kg, Female, F344; remark: listed apart in the source
[19] = system: Rat; conditions: dosed: Perfluorohexane-1-sulphonic acid – potassium salt, 4 mg/kg, Female, Harlan Sprague Dawley; remark: listed apart in the source
[20] = system: Rat; conditions: dosed: Perfluorohexane-1-sulphonic acid – potassium salt, 4 mg/kg, Female, F344; remark: listed apart in the source
[21] = system: Rat; conditions: 1200 h; dosed: Perfluorohexane-1-sulphonic acid – potassium salt; 16 mg/kg; oral; Male; Harlan Sprague Dawley
[22] = system: Rat; conditions: 12 h; dosed: Perfluorohexane-1-sulphonic acid – potassium salt; 16 mg/kg; oral; Female; F344
[23] = system: Rat; conditions: dosed: Perfluorohexane-1-sulphonic acid – potassium salt, 4 mg/kg, Female, F344; remark: listed apart in the source
[24] = system: Rat; conditions: dosed: Fluorotelomer alcohol 8+2, 40 mg/kg, oral, Female, Harlan Sprague Dawley
[25] = system: Rat; conditions: dosed: Fluorotelomer alcohol 8+2, 160 mg/kg, oral, Female, Harlan Sprague Dawley
[26] = system: Rat; conditions: 6 h; dosed: Fluorotelomer alcohol 8+2; 80 mg/kg; oral; Female; Harlan Sprague Dawley
[27] = system: Rat; conditions: dosed: Fluorotelomer alcohol 8+2, 160 mg/kg, oral, Female, Harlan Sprague Dawley; remark: listed apart in the source
[28] = system: Rat; conditions: 3 h; dosed: Fluorotelomer alcohol 8+2; 40 mg/kg; oral; Female; Harlan Sprague Dawley
[29] = system: Rat; conditions: 0.5 h; dosed: Fluorotelomer alcohol 8+2; 80 mg/kg; oral; Female; Harlan Sprague Dawley
[30] = system: Rat; conditions: dosed: Fluorotelomer alcohol 8+2, 40 mg/kg, oral, Female, Harlan Sprague Dawley; remark: listed apart in the source
[31] = system: Rat; conditions: 3 h; dosed: Fluorotelomer alcohol 8+2; 80 mg/kg; oral; Female; Harlan Sprague Dawley
[32] = system: Rat; conditions: dosed: Fluorotelomer alcohol 8+2, 48 mg/kg, oral, Male, Harlan Sprague Dawley

C/C=C/c1ccc(O)c(OC)c1 [Isoeugenol]
concentration in plasma ([1]; 10 min): 635 ng/mL | concentration in plasma ([1]; 4 h): 545 ng/mL | concentration in plasma ([2]; 1 h): 418 ng/mL | concentration in plasma ([2]; 8 h): 337 ng/mL | concentration in plasma ([3]; 0.5 h): 725 ng/mL | concentration in plasma ([3]; 5 h): 563 ng/mL | concentration in plasma ([4]; 10 min): 3870 ng/mL | concentration in plasma ([4]; 6 h): 25.3 ng/mL | concentration in plasma ([5]; 0.5 h): 426 ng/mL | concentration in plasma ([5]; 8 h): 108 ng/mL | concentration in plasma ([6]; 1 h): 1030 ng/mL | concentration in plasma ([6]; 4 h): 595 ng/mL | concentration in plasma ([7]; 0.5 h): 995 ng/mL | concentration in plasma ([7]; 3 h): 24.5 ng/mL

O=S(=O)([O-])C(F)(F)C(F)(F)C(F)(F)C(F)(F)C(F)(F)C(F)(F)F.[K+] [Perfluorohexane-1-sulphonic acid – potassium salt]
concentration in plasma ([8]; 3 h): 27700 ng/mL | concentration in plasma ([8]; 96 h): 4650 ng/mL | concentration in plasma ([9]; 0.25 h): 39000 ng/mL | concentration in plasma ([9]; 288 h): 1930 ng/mL | concentration in plasma [10]: 117000 ng/mL | concentration in plasma ([11]; 0.25 h): 38100 ng/mL | concentration in plasma ([11]; 6 h): 185000 ng/mL | concentration in plasma ([11]; 528 h): 60800 ng/mL | concentration in plasma ([12]; 3 h): 23300 ng/mL | concentration in plasma ([12]; 48 h): 11000 ng/mL | concentration in plasma ([13]; 0.5 h): 39700 ng/mL | concentration in plasma ([13]; 24 h): 30000 ng/mL | concentration in plasma ([13]; 1200 h): 6940 ng/mL | concentration in plasma ([14]; 6 h): 25100 ng/mL | concentration in plasma ([14]; 96 h): 8260 ng/mL | concentration in plasma ([15]; 0.25 h): 43000 ng/mL | concentration in plasma ([15]; 6 h): 30700 ng/mL | concentration in plasma ([15]; 528 h): 10100 ng/mL | concentration in plasma ([16]; 1 h): 36300 ng/mL | concentration in plasma ([16]; 48 h): 7970 ng/mL | concentration in plasma ([17]; 0.5 h): 41700 ng/mL | concentration in plasma ([17]; 24 h): 15600 ng/mL | concentration in plasma ([18]; 1 h): 39900 ng/mL | concentration in plasma ([18]; 192 h): 13900 ng/mL | concentration in plasma ([19]; 1 h): 35000 ng/mL | concentration in plasma ([19]; 48 h): 10200 ng/mL | concentration in plasma ([20]; 0.25 h): 41100 ng/mL | concentration in plasma ([20]; 6 h): 25200 ng/mL | concentration in plasma ([20]; 864 h): 6650 ng/mL | concentration in plasma [21]: 20300 ng/mL | concentration in plasma [22]: 126000 ng/mL | concentration in plasma ([23]; 5 min): 63600 ng/mL | concentration in plasma ([23]; 6 h): 26100 ng/mL | concentration in plasma ([23]; 192 h): 590 ng/mL

O=C(O)CCC(F)(F)C(F)(F)C(F)(F)C(F)(F)C(F)(F)C(F)(F)C(F)(F)F [Fluorotelomer acid 7+3]
concentration in plasma ([24]; 1 h): 1090 ng/mL | concentration in plasma ([24]; 24 h): 270 ng/mL | concentration in plasma ([25]; 0.25 h): 79.7 ng/mL | concentration in plasma ([25]; 6 h): 7350 ng/mL | concentration in plasma [26]: 6100 ng/mL | concentration in plasma ([27]; 1 h): 4710 ng/mL | concentration in plasma ([27]; 24 h): 5640 ng/mL | concentration in plasma [28]: 3180 ng/mL | concentration in plasma [29]: 830 ng/mL | concentration in plasma ([30]; 0.25 h): 81.4 ng/mL | concentration in plasma ([30]; 6 h): 2030 ng/mL | concentration in plasma [31]: 8360 ng/mL | concentration in plasma ([32]; 0.25 h): 31.8 ng/mL | concentration in plasma ([32]; 6 h): 1580 ng/mL
